Measurements: PubChem BioAssay AID624417 (National Center for Advancing Translational Sciences (NCATS), 2012)
The campaign covered roughly 410,000 compounds. About 6,400 (1.6%) were called active. The inconclusive results got no clear call from the source; some entries with a clear call stand among them for comparison. Calls follow the shape of the dose curve; as a rule, active = well fitted inhibition curve with a large enough effect; inconclusive = small, poorly fitted or top-dose-only effect; inactive = no such curve, though single readings can be large or run the other way. Where the call is inconclusive, the potency comes from a doubtful curve fit.

target: Glucagon-like peptide 1 receptor (Homo sapiens) (UniProt P43220); assay: qHTS of GLP-1 Receptor Inverse Agonists (Inhibition Mode); details: HEK293 GLP-1R CRE-luciferase, luminescence, 24 h, GLP-1R form is constitutively active; series mostly up to 38.3 µM; also: nearly all actives have a fitted effect of over 55% in size
Procedure, shortened: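 Inverse agonism was detected as reduced cAMP-driven luciferase luminescence after 24 h compound treatment. The cells were HEK293 clones expressing constitutively active human GLP-1R with the reporter. Reporter-only and GPR119 cell lines served as counterscreen controls.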
Potency is read from the fitted curve at half-maximal effect; tags tell the direction and shape of the fitted curve.

Sequence of UniProt P43220 (P43220 whole entry, looked up): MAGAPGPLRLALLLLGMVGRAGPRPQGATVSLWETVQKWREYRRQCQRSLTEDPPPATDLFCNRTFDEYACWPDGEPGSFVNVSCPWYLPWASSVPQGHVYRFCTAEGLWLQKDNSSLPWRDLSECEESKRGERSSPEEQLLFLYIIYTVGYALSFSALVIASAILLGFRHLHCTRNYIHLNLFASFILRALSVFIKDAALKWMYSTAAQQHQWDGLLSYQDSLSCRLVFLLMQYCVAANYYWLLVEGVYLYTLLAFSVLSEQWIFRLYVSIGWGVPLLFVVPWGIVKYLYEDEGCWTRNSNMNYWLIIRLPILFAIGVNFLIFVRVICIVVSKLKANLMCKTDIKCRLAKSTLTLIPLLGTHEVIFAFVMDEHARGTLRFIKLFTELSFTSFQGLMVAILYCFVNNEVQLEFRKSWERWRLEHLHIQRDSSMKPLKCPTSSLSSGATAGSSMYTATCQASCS

Potency, active:
CCc1ccc(OCC(=O)N(Cc2ccco2)Cc2ccccc2Cl)cc1 10 µM
NC(=S)Nc1nc2ccccc2s1 4.47 µM

Potency, inconclusive:
Cc1ccc(C)c(S(=O)(=O)Nc2ccc(C(=O)NCCCN(C)C)cc2)c1 12.6 µM [inhibitor, partial curve, poor fit]
CCN1CCC2(CC1)N=C(c1ccc(F)cc1)C(=S)N2C(=O)c1ccc(C)cc1 11.2 µM [inhibitor, partial curve, poor fit]
CN(C)CCCNc1nc2cc(-c3ccc(F)cc3)sc2c(=O)n1C 5.62 µM [inhibitor, full curve]
O=C(N/N=C/c1cccc([N+](=O)[O-])c1)c1ccc(COc2ccccc2-c2ccccc2)cc1 7.08 µM [inhibitor, partial curve]
COc1ccc(-c2noc(CCC(=O)N3CCN(c4cccc(C)c4C)CC3)n2)cc1 28.2 µM [inhibitor, single point]
O=c1cc(-c2ccccc2)[nH]c2ccc(F)cc12 0.501 µM [inhibitor, full curve, poor fit]
Cc1ccn2cc(-c3ccc(NC(=O)c4ccco4)cc3)nc2c1 10 µM [inhibitor, partial curve]
COc1cc(-c2cc(C(=O)Nc3ccc(O)cc3)c3ccccc3n2)cc(OC)c1OC 10 µM [inhibitor, partial curve, poor fit]
CCCCNc1c(-c2cccc(Sc3ccc(OC)cc3)c2)nc2ccccn12 22.4 µM [inhibitor, single point]
Cc1cc2c3c([nH]c2cc1S(=O)(=O)N1CCC2(CC1)OCCO2)CC(C)(C)CC3=O 7.94 µM [inhibitor, partial curve, poor fit]
Cc1cc(C)c(C)c(S(=O)(=O)N2CCN(CC(=O)c3c(N)n(Cc4ccccc4)c(=O)n(C)c3=O)CC2)c1C 7.94 µM [inhibitor, partial curve, poor fit]
CCCN1CCN(CCCNC(=S)Nc2ccc3nc(N4CCN(CC)CC4)cc(C)c3c2)CC1 8.91 µM [inhibitor, partial curve, poor fit]
Nc1ccccc1SCC(=O)Nc1ccc2c(c1)OCO2 5.62 µM [inhibitor, partial curve, poor fit]
Cn1c(=O)c2c(-c3ccc(Br)cc3)n(CCc3ccccc3)cc2n(C)c1=O 28.2 µM [inhibitor, single point]
CC(C)NC(=O)N1c2ccccc2Sc2ccccc21 28.2 µM [inhibitor, single point]
COc1ccc(OC)c(S(=O)(=O)N2CCCc3ccccc32)c1 12.6 µM [inhibitor, single point]
CCN1CCC(=NNC(=O)CC23CC4CC(CC(C4)C2)C3)CC1 28.2 µM [inhibitor, single point]
CCc1cccc(C)c1NC(=O)Cn1cc2c(n1)CCCC2 20 µM [inhibitor, partial curve, poor fit]
O=C(Cc1ccc(-n2c(=O)c3sccc3n(Cc3ccc(F)cc3)c2=O)cc1)NCc1ccco1 10 µM [inhibitor, partial curve]
CCOC(=O)c1ccc(S(=O)(=O)N2CCN(C(=O)CSc3nc4ccccc4o3)CC2)cc1 28.2 µM [inhibitor, single point]
COc1ccc(CN2CCCC(CO)(Cc3cccc(Cl)c3)C2)cc1OC (stereo not given) 7.94 µM [inhibitor, partial curve, poor fit]
CCC(C(=O)OCC(=O)Nc1c(C)nn(-c2ccccc2)c1C)c1ccccc1 (stereo not given) 15.8 µM [inhibitor, single point]
Cc1ccc(Cn2c(=N)n(CC(=O)c3ccccc3)c3ccccc32)cc1 10 µM [inhibitor, partial curve, poor fit]
CC(=O)c1ccc(NC(=O)CCNS(=O)(=O)c2cc(Br)cnc2N)cc1 28.2 µM [inhibitor, single point]
O=C1N(C2CCCC2)C[C@@H]2C[C@@H](c3cn[nH]c3-c3ccc(Cl)cc3)N3CCC[C@@]123 28.2 µM [inhibitor, single point]
COc1ccc(CCn2c(=N)c(C(=O)NCC3CCCO3)cc3c(=O)n4ccccc4nc32)cc1 (stereo not given) 5.01 µM [inhibitor, full curve, poor fit]
CCNC(=S)N(CCc1ccc(S(N)(=O)=O)cc1)C1CC(=O)N(c2ccccc2)C1=O (stereo not given) 11.2 µM [inhibitor, single point]
COc1ccc(C2=CC(=O)C[C@H](c3ccc(F)cc3)C2)c(F)c1F 28.2 µM [inhibitor, single point]
C(=C\c1ccccc1)/CN1CCN(c2ncnc3c2oc2ccccc23)CC1 28.2 µM [inhibitor, single point]
CC(C)N(C(=O)[C@H]1C[C@H](CC(=O)NCc2ccco2)C(=O)N2CCc3c([nH]c4ccc(Cl)cc34)[C@]12C)C(C)C 12.6 µM [inhibitor, partial curve, poor fit]

Potency, inactive:
O=C(O)c1cc(NCc2cccs2)ccc1N1CCOCC1
CNc1cc(CSc2ccc(Cl)cc2)nc(C)n1
COCc1nc2ccccc2n1CCc1ccccc1
CCOc1ccc(NC(=O)c2cnn(-c3ccc(C)c(C)c3)c2C2CCN(C(=O)OC(C)(C)C)CC2)cc1
N#C/C(=C\c1ccc(N2CCOCC2)o1)C(=O)NC1CCCCC1
CN(C)c1ccc(N2C(=O)CC(Sc3ccccc3C(=O)O)C2=O)cc1 (stereo not given)
OC(c1nc2ccccc2[nH]1)C(O)c1nc2ccccc2[nH]1 (stereo not given)
NS(=O)(=O)c1ccc(CCNC(=O)c2ccc3c(=O)n4c(nc3c2)CCCCC4)cc1
